Laboratory results reported in patent US20220162314A1 (ASHER BIOTHERAPEUTICS, published 2022).

B1: xhCD8v14-IL2m4, format A (other)
light chain: EIVLTQSPGTLSLSPGERATLS[skipping about 80 residues][skipping about 120 residues]
heavy chain with IL2 fusion: EVQLVESGGGLVQPGGSLRLSCAASGFTFSSYAMSWVRQAPGKGLEWVSDISYAGGSTAYADSVKGRFTISRDNAKNSLYLQMNSLRAEDTAVYYCARSNAYAWDDALDIWGQGTMVTVSSASTKGPSVFPLAPSSKSTSGGTAALGCLVKDYFPEPVTVSWNSGALTSGVHTFPAVLQSSGLYSLSSVVTVPSSSLGTQTYICNVNHKPSNTKVDKKVEPKSCDKTHTCPPCPAPEAAGAPSVFLFPPKPKDTLMISRTPEVTCVVVDVSHEDPEVKFNWYVDGVEVHNAKTKPREEQYNSTYRVVSVLTVLHQDWLNGKEYKCKVSNKALPAPIEKTISKAKGQPREPQVYTLPPCREEMTKNQVSLSCAVKGFYPSDIAVEWESNGQPENNYKTTPPVLDSDGSFFLVSKLTVDKSRWQQGNVFSCSVMHEALHNHYTQKSLSLSPGSGGGGSGGGGSGGGGSAPTSSSTKKTQLQLEELLLDLQMILNGINNYKNPKLTEMLTAKFYMPKKATELKHLQCLEEELKPLEEVLNLAQSKNFHLRPRDLISNINVIVLELKGSETTFMCEYADETATIVEFLNRWITFAQSIISTLT
heavy chain without IL2 fusion: EVQLVESGGGLVQPGGSLRLSCAASGFTFSSYAMSWVRQAPGKGLEWVSDISYAGGSTAYADSVKGRFTISRDNAKNSLYLQMNSLRAEDTAVYYCARSNAYAWDDALDIWGQGTMVTVSSASTKGPSVFPLAPSSKSTSGGTAALGCLVKDYFPEPVTVSWNSGALTSGVHTFPAVLQSSGLYSLSSVVTVPSSSLGTQTYICNVNHKPSNTKVDKKVEPKSCDKTHTCPPCPAPEAAGAPSVFLFPPKPKDTLMISRTPEVTCVVVDVSHEDPEVKFNWYVDGVEVHNAKTKPREEQYNSTYRVVSVLTVLHQDWLNGKEYKCKVSNKALPAPIEKTISKAKGQPREPQVCTLPPSREEMTKNQVSLWCLVKGFYPSDIAVEWESNGQPENNYKTTPPVLDSDGSFFLYSKLTVDKSRWQQGNVFSCSVMHEALHNHYTQKSLSLSPG
B2: xhCD8v14-IL2m1, format A (other)
light chain: EIVLTQSPGTLSLSPGERATLS[skipping about 80 residues][skipping about 120 residues]
heavy chain with IL2 fusion: EVQLVESGGGLVQPGGSLRLSCAASGFTFSSYAMSWVRQAPGKGLEWVSDISYAGGSTAYADSVKGRFTISRDNAKNSLYLQMNSLRAEDTAVYYCARSNAYAWDDALDIWGQGTMVTVSSASTKGPSVFPLAPSSKSTSGGTAALGCLVKDYFPEPVTVSWNSGALTSGVHTFPAVLQSSGLYSLSSVVTVPSSSLGTQTYICNVNHKPSNTKVDKKVEPKSCDKTHTCPPCPAPEAAGAPSVFLFPPKPKDTLMISRTPEVTCVVVDVSHEDPEVKFNWYVDGVEVHNAKTKPREEQYNSTYRVVSVLTVLHQDWLNGKEYKCKVSNKALPAPIEKTISKAKGQPREPQVYTLPPCREEMTKNQVSLSCAVKGFYPSDIAVEWESNGQPENNYKTTPPVLDSDGSFFLVSKLTVDKSRWQQGNVFSCSVMHEALHNHYTQKSLSLSPGSGGGGSGGGGSGGGGSAPTSSSTKKTQLQLEHLLLDLQMILNGINNYKNPKLTEMLTAKFYMPKKATELKHLQCLEEELKPLEEVLNLAQSKNFHLRPRDLISAINVIVLELKGSETTFMCEYADETATIVEFLNRWITFAQSIISTLT
heavy chain without IL2 fusion: EVQLVESGGGLVQPGGSLRLSCAASGFTFSSYAMSWVRQAPGKGLEWVSDISYAGGSTAYADSVKGRFTISRDNAKNSLYLQMNSLRAEDTAVYYCARSNAYAWDDALDIWGQGTMVTVSSASTKGPSVFPLAPSSKSTSGGTAALGCLVKDYFPEPVTVSWNSGALTSGVHTFPAVLQSSGLYSLSSVVTVPSSSLGTQTYICNVNHKPSNTKVDKKVEPKSCDKTHTCPPCPAPEAAGAPSVFLFPPKPKDTLMISRTPEVTCVVVDVSHEDPEVKFNWYVDGVEVHNAKTKPREEQYNSTYRVVSVLTVLHQDWLNGKEYKCKVSNKALPAPIEKTISKAKGQPREPQVCTLPPSREEMTKNQVSLWCLVKGFYPSDIAVEWESNGQPENNYKTTPPVLDSDGSFFLYSKLTVDKSRWQQGNVFSCSVMHEALHNHYTQKSLSLSPG
B3: xhCD8v11-IL2m4, format A (other)
light chain: EIVLTQSPGTLSLSPGERATLS[skipping about 80 residues][skipping about 120 residues]
heavy chain with IL2 fusion: EVQLVESGGGLVQPGGSLRLSCAASGFTFSSYAMSWVRQAPGKGLEWVSDITYAGGSTAYADSVKGRFTISRDNAKNSLYLQMNSLRAEDTAVYYCARSNAYAWDDALDIWGQGTLVTVSSASTKGPSVFPLAPSSKSTSGGTAALGCLVKDYFPEPVTVSWNSGALTSGVHTFPAVLQSSGLYSLSSVVTVPSSSLGTQTYICNVNHKPSNTKVDKKVEPKSCDKTHTCPPCPAPEAAGAPSVFLFPPKPKDTLMISRTPEVTCVVVDVSHEDPEVKFNWYVDGVEVHNAKTKPREEQYNSTYRVVSVLTVLHQDWLNGKEYKCKVSNKALPAPIEKTISKAKGQPREPQVYTLPPCREEMTKNQVSLSCAVKGFYPSDIAVEWESNGQPENNYKTTPPVLDSDGSFFLVSKLTVDKSRWQQGNVFSCSVMHEALHNHYTQKSLSLSPGSGGGGSGGGGSGGGGSAPTSSSTKKTQLQLEELLLDLQMILNGINNYKNPKLTEMLTAKFYMPKKATELKHLQCLEEELKPLEEVLNLAQSKNFHLRPRDLISNINVIVLELKGSETTFMCEYADETATIVEFLNRWITFAQSIISTLT
heavy chain without IL2 fusion: EVQLVESGGGLVQPGGSLRLSCAASGFTFSSYAMSWVRQAPGKGLEWVSDITYAGGSTAYADSVKGRFTISRDNAKNSLYLQMNSLRAEDTAVYYCARSNAYAWDDALDIWGQGTLVTVSSASTKGPSVFPLAPSSKSTSGGTAALGCLVKDYFPEPVTVSWNSGALTSGVHTFPAVLQSSGLYSLSSVVTVPSSSLGTQTYICNVNHKPSNTKVDKKVEPKSCDKTHTCPPCPAPEAAGAPSVFLFPPKPKDTLMISRTPEVTCVVVDVSHEDPEVKFNWYVDGVEVHNAKTKPREEQYNSTYRVVSVLTVLHQDWLNGKEYKCKVSNKALPAPIEKTISKAKGQPREPQVCTLPPSREEMTKNQVSLWCLVKGFYPSDIAVEWESNGQPENNYKTTPPVLDSDGSFFLYSKLTVDKSRWQQGNVFSCSVMHEALHNHYTQKSLSLSPG

molecular target: T1, CD8 on human CD8+ T cells (CD3+CD8a+CD8b+ cells of hPBMCs) (human, UniProt P01732 22-235; P10966 22-210); assay: flow cytometry binding to CD8+ T cells; ratio of the EC50 of format D to the EC50 of format A drawn as a bar on a log axis
T1 construct: whole, on cells; also called CD8ab+ T cells
T1 sequence (P01732 22-235, chain 1 of 2): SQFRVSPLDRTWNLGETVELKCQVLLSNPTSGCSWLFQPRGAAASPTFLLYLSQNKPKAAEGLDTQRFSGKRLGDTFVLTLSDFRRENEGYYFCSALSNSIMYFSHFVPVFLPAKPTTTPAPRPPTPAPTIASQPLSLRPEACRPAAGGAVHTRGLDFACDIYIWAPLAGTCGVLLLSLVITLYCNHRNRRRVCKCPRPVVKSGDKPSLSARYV
T1 sequence (P10966 22-210, chain 2 of 2, further chain): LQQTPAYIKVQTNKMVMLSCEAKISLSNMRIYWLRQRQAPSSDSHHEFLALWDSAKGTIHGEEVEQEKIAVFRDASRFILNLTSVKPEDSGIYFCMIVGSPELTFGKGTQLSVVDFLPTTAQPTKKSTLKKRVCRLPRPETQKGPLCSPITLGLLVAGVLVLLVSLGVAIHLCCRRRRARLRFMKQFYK

Binding result, binds:
B1
B2
B3
